From PubChem BioAssay AID624296 (National Center for Advancing Translational Sciences (NCATS), 2012)
Screen size: about 350,000 compounds; about 9,900 (2.8%) were called active. The inconclusive results got no clear call from the source; some entries with a clear call stand among them for comparison. Calls come from the whole dose curve; as a rule, active = well fitted activation curve with a large enough effect; inconclusive = small, poorly fitted or top-dose-only effect; inactive = no such curve, though single readings can be large or run the other way. Potencies of inconclusive entries are left out as doubtful fits.

assay: A quantitative high throughput screen for small molecules that induce DNA re-replication in MCF 10a normal breast cells.; note: nearly all actives have a fitted effect of over 50% in size; for activity, positive = re-replication: % of control where 0% means no effect; conditions: MCF 10A DNA re-replication, Hoechst nuclear intensity, 48 h; activity, positive = re-replication: at 46.1 µM (top of the series)
Potency is the fitted concentration of half-maximal effect; tags give direction and shape of the fitted curve.

Row | Structure (SMILES) | Potency | activity, positive = re-replication
1 | O=C(OCC(=O)N1CCN(c2ccccc2)CC1)c1ccc(Cl)nc1 | inconclusive [activator, single point] | –
2 | O=C(Nc1ccccc1)c1nnsc1S(=O)(=O)c1ccc(Cl)cc1 | active: 13 µM | –
3 | O=C(CSc1ccc(-c2ccccn2)nn1)NCc1ccc(Cl)cc1 | inconclusive [activator, single point] | –
4 | CCOc1ccc(S(=O)(=O)Nc2cc(SCC(=O)O)c(O)c3ccccc23)cc1 | inconclusive [activator, single point] | –
5 | CCOC(=O)c1ccc(N=NN(C)C)cc1 | inconclusive [activator, full curve, poor fit] | –
6 | N#Cc1cc2cc3c(cc2nc1SCC(=O)N1CCOCC1)OCO3 | inactive | –
7 | COC(=O)Nc1ccc(C)cc1NC(=O)OC | inactive | –
8 | CCOc1ccc(/C=N/NC(=O)c2ccccc2Cl)cc1CN1CC2CC(C1)c1cccc(=O)n1C2 (stereo not given) | inconclusive [activator, partial curve, poor fit] | –
9 | c1ccc(CNc2c3ccccc3nc3ccccc23)cc1 | inconclusive [activator, single point] | –
10 | O=C(Nc1ccc(N2CCN(C(=O)c3ccccc3)CC2)c(Cl)c1)c1cccnc1 | inconclusive [activator, partial curve, poor fit] | –
11 | COc1ccc(N(C(=O)C2CCCCC2)S(=O)(=O)c2cccc3cccnc23)cc1 | inconclusive [activator, single point] | –
12 | CC(=O)CCc1oc2ccc(NC(C)=O)cc2c1-c1ccc(C)o1 | inconclusive [activator, single point] | –
13 | Nc1c(C(=O)Nc2ccc3c(c2)OCCO3)nnn1Cc1cccc(F)c1 | inconclusive [activator, full curve, poor fit] | –
14 | Cc1cc(C)c(S(=O)(=O)N2CCN(C(=O)c3ccc4c(c3)OCO4)CC2)c(C)c1 | inactive | –
15 | Cc1onc(-c2c(Cl)cccc2Cl)c1C(=O)Nc1ccc(C(N)=O)cc1 | – | inconclusive: -40.7% [activator]
16 | CC(O)(CC(=O)CC(=O)c1ccccc1)c1ccccc1 (stereo not given) | inconclusive [activator, partial curve, poor fit] | –
17 | Cc1ccc(-c2ccc(CCC(=O)O)n2NC(=O)c2ccco2)cc1 | inconclusive [activator, partial curve, poor fit] | –
18 | Fc1ccccc1-c1nc2nc3ccccc3nc2n1CC1CCCO1 (stereo not given) | inactive | –
19 | Cc1cccn2c(=O)c3cc(C#N)c(=N)n(CCCN4CCOCC4)c3nc12 | inconclusive [activator, partial curve] | –
20 | CCc1ccc(OCc2n[nH]c(=S)n2C(C)CCCC(C)C)cc1 (stereo not given) | active: 13 µM | –
21 | O=C1N(Cc2cccc(Cl)c2)C[C@@H]2C[C@@H](c3c[nH]c4ccccc34)N3CCC[C@@]123 | inconclusive [activator, single point] | –
22 | S=C(NCCc1ccc(Cl)cc1)Nc1ccc(Cl)cc1Cl | inconclusive [activator, single point] | –
23 | CCS(=O)(=O)N1CCC(C(=O)NC2CCCCC2)CC1 | inconclusive [activator, partial curve, poor fit] | –
24 | Cn1c(C=O)c(C#Cc2ccccc2)c2ccccc21 | active: 8.2 µM | –

Row | Structure (SMILES) | Potency | activity, positive = re-replication
25 | CCOc1ccc(S(=O)(=O)N2CCCCC2)cc1NS(=O)(=O)c1cccs1 | inactive | –
26 | Cc1cc(-n2c(SCC(=O)NCCC3=CCCCC3)nc3n[nH]c(C)c3c2=N)ccc1Cl | active: 20.6 µM | –
27 | CCn1ncc(C2=NOC(C(=O)Nc3c(C)nn(Cc4ccc(F)cc4)c3C)C2)c1C (stereo not given) | inactive | –
28 | CCCCOc1ccc(CSc2nc(C)[nH]c2[N+](=O)[O-])cc1[N+](=O)[O-] | inconclusive [activator, partial curve] | –
29 | O=C(NCc1ccccc1)c1cccc(NC(=O)C2CC2)c1 | inconclusive [activator, full curve, poor fit] | –
30 | CCCCNC(=O)Cn1cnc2sc(C)c(S(=O)(=O)N3CCN(c4ncccn4)CC3)c2c1=O | inconclusive [activator, single point] | –
31 | CCN(C(=O)COC(=O)c1ccc([N+](=O)[O-])o1)c1cccc2ccccc12 | inconclusive [activator, single point] | –
32 | CCNC(=O)NC(=O)CSc1ccc(NC(C)=O)cc1 | inconclusive [activator, partial curve, poor fit] | –
33 | Cc1ccc(C(=O)O)cc1-c1ccc(/C=C2/NC(=O)N(c3ccccc3)C2=O)o1 | active: 13 µM | –
34 | Cc1ccc(Cl)cc1N1CCN(CC(O)COC(C)C)CC1 (stereo not given) | inactive | –
35 | COc1cc(OC)cc(-c2nnc(SCc3cccc(C(=O)O)c3)o2)c1 | inactive | –
36 | CC1(C)CC2(CC(c3ccccc3F)c3cc(Cl)c(O)cc3O2)NC(=S)N1 (stereo not given) | inactive | –
37 | Cc1nc(-c2ccccc2)cc(N2CCCC2)n1 | inconclusive [activator, partial curve, poor fit] | –
38 | O=C(COc1ccccc1)N(Cc1ccco1)C1CCS(=O)(=O)C1 (stereo not given) | inconclusive [activator, full curve, poor fit] | –
39 | c1ccc(-c2cc3ccccc3nc2N2CCCC2)cc1 | inconclusive [activator, single point] | –
40 | COc1cc(/C=C/C(=O)c2cccc([N+](=O)[O-])c2)cc(OC)c1OC | inconclusive [activator, single point] | –
41 | CN(c1ccccc1)S(=O)(=O)c1cccc(NC(=O)c2cc(=O)c3ccccc3o2)c1 | active: 25.9 µM | –
42 | CN(C)CC(C(=O)c1ccccc1)c1ccccc1 (stereo not given) | active: 2.59 µM | –
43 | COc1ccc(OC)c(/C=C/C(=O)OCC(=O)NCc2ccccc2)c1 | inactive | –
44 | CCOC(=O)c1c(NC(=O)COc2ccccc2C#N)sc2c1CC(C)(C)NC2(C)C | inconclusive [activator, single point] | –
45 | O=S(=O)(Nc1ccccc1OC(F)F)c1ccc(S(=O)(=O)N2CCCC2)cc1 | inactive | –
46 | CCCCC1=CC2=C(c3ccco3)C(=O)C(C)(OC(=O)c3ccc(OC)cc3)C(=O)C2=CN1CC(C)C (stereo not given) | inconclusive [activator, partial curve] | –
47 | Cc1cccc(NS(=O)(=O)c2ccc(Br)s2)n1 | inactive | –
48 | CCn1c(CSc2nc3ccccc3s2)nnc1SCC(=O)c1ccc(Cl)cc1 | inconclusive [activator, single point] | –

Row | Structure (SMILES) | Potency | activity, positive = re-replication
49 | COc1ccc(-c2cc(-c3ccccc3)n3ncnc3n2)cc1 | inconclusive [activator, partial curve, poor fit] | –
50 | Cc1ccc(-n2nc(C)c(NC(=O)CCl)c2C)cc1 | inconclusive [activator, single point] | –
51 | Cc1ccccc1-n1nc2c(c1NC(=O)c1c(-c3ccccc3Cl)noc1C)CSC2 | inconclusive [activator, single point] | –
52 | COc1cc(CNCCO)cc(Cl)c1OCc1ccc(Cl)cc1Cl | inconclusive [activator, partial curve, poor fit] | –
53 | N#Cc1nc(-c2cccs2)oc1NCc1ccc(Cl)cc1 | inconclusive [activator, single point] | –
54 | CN(C(=O)c1cc(-n2cnnc2)ccc1Cl)c1ccccc1 | inactive | –
55 | COc1ccc(NC(=S)NC(=O)CC(C)C)c(OC)c1 | inconclusive [activator, partial curve, poor fit] | –
56 | COCC(C)n1c(SCC(=O)N2CCc3ccccc3C2)nc2ccccc2c1=O (stereo not given) | inactive | –
57 | O=C1c2ccccc2C2(c3ccccc3)N1CCN2C(=O)C(Cl)(Cl)Cl (stereo not given) | inconclusive [activator, single point] | –
58 | COc1cccc(C(=O)O/N=C(\N)c2ccc(C)cc2)c1 | inactive | –
59 | O=C(Nc1ccc(F)cc1)Nc1nnc(-c2ccco2)s1 | inactive | –
60 | CCc1ccc(O)c(CNCCNCc2cc(CC)ccc2O)c1 | inactive | –
61 | CC(C)c1nnc(NC(=O)CCS(=O)(=O)c2ccccc2)s1 | inconclusive [activator, single point] | –
62 | Cc1ccc(CNC(=O)c2cc3c(=O)n4ccccc4nc3n(Cc3ccco3)c2=N)cc1 | active: 7.94 µM | –
63 | Cc1nc(NC(=O)CSc2ccc(-c3nc4ccccc4[nH]3)cn2)sc1C | active: 18.4 µM | –
64 | Cc1ccccc1-c1nsc(SCC(=O)Nc2ccc3c(c2)OCO3)n1 | inconclusive [activator, single point] | –
65 | CCC(=O)Nc1nnc(SCC(=O)Nc2ccc3c(c2)OCCO3)s1 | inconclusive [activator, single point] | –
66 | O=C(CSc1ncnc2c1nnn2Cc1ccccc1F)NCC1CCCO1 (stereo not given) | inconclusive [activator, single point] | –
67 | Nc1ccc(-c2nc3ccccc3[nH]2)cc1 | inconclusive [activator, single point] | –
68 | CN(C)c1nc(Nc2ccc(Cl)c(Cl)c2)nc(N(C)C)n1 | inconclusive [activator, single point] | –
69 | C(=N\n1cnnc1)/c1cn(Cc2ccccc2)c2ccccc12 | inconclusive [activator, partial curve, poor fit] | –
70 | Cn1nnnc1Sc1ncnc2scc(-c3ccc(F)cc3)c12 | inconclusive [activator, full curve, poor fit] | –
